From the BET-seq Pho4 binding data (Le et al. 2018)
This is one part of the list. Values were computed here from the reads of four pooled replicates and scatter widely.

These sequences were tested against T1, Pho4 (S. cerevisiae) (UniProt P07270) (assay: relative binding free energy (BET-seq); higher = weaker binding). Settings: reference: library average.
T1 sequence: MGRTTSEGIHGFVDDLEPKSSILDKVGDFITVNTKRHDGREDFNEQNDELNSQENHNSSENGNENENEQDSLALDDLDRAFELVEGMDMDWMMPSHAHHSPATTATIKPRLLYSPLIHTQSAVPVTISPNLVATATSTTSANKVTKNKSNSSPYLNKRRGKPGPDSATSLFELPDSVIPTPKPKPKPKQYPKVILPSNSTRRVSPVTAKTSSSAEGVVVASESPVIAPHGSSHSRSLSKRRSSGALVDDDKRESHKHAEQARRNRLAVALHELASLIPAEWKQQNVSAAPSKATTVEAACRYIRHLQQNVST

Relative binding free energy, -0.01 kcal/mol:
GGAGGCACGTGACGGA
AGTCTCACGTGGGTTG
GCGGGCACGTGTATGA
ATGGGCACGTGTATTC

Relative binding free energy, -0.11 kcal/mol:
GCTGGCACGTGGTGTT

Relative binding free energy, 0.35 kcal/mol:
GTGTTCACGTGAGATC
AAGTTCACGTGAGGGG

Relative binding free energy, 0.06 kcal/mol:
TAATTCACGTGCGTTG
AGGGCCACGTGAGGGG
GGTGACACGTGTGTAC

Relative binding free energy, 0.37 kcal/mol:
CTTTTCACGTGTAGAT

Relative binding free energy, 0 kcal/mol:
GTGTGCACGTGGAGAA
ACGGACACGTGGGCGT
AGTGGCACGTGTGATG
CAATACACGTGGGTTA
GTGGCCACGTGGTTTA
TAGGTCACGTGGCTTA
TAATGCACGTGTGGTC
CTGAACACGTGTGGGT
AGGGACACGTGCGGAG

Relative binding free energy, 0.48 kcal/mol:
GATTTCACGTGTGGGT

Relative binding free energy, 0.2 kcal/mol:
TTTTGCACGTGAGCTG
TATTGCACGTGTAGAT
GGTTACACGTGTTGTA

Relative binding free energy, 0.04 kcal/mol:
ATCGACACGTGTGTGT
TGTATCACGTGGTGTG
TTTCGCACGTGTTTGT
GTTAACACGTGTTAGT
GTAGGCACGTGTGAGA

Relative binding free energy, 0.21 kcal/mol:
AGTTACACGTGAGGGC
GGAGGCACGTGAATGG
TTGCTCACGTGTGATA

Relative binding free energy, 0.36 kcal/mol:
AGATTCACGTGGAGTT
CGGGGCACGTGAATAT
ATATTCACGTGAGTAG

Relative binding free energy, 0.39 kcal/mol:
TTCTTCACGTGTTCTG
GAGTTCACGTGAGTTA

Relative binding free energy, 0.01 kcal/mol:
CATGCCACGTGGAGGT
CATCGCACGTGGTTGG
ATAGGCACGTGTAGTA
TTTCGCACGTGTGGAT
TGTTCCACGTGTGATA

Relative binding free energy, 0.17 kcal/mol:
TAAGTCACGTGCAGTT
TGGATCACGTGGTATT
AAGTTCACGTGGTGTT
TGGATCACGTGTGCGT

Relative binding free energy, -0.14 kcal/mol:
GGAGGCACGTGGTAGC
TTGAGCACGTGTCTAT
TGGGGCACGTGCAGAG

Relative binding free energy, 0.09 kcal/mol:
CAGTACACGTGTAGTG
GCGGACACGTGTGTGA
AATGTCACGTGTGTAT
GGGAGCACGTGTAATG
TTGGTCACGTGCACGG
TTTGCCACGTGTAGTA
GTGATCACGTGGAGGT
TAAGTCACGTGGAAAT
TTTCGCACGTGAGGAT
GACGGCACGTGTTGGT
AAAAACACGTGGAGGT

Relative binding free energy, -0.12 kcal/mol:
AGGGGCACGTGCTTAA

Relative binding free energy, 0.4 kcal/mol:
TTATTCACGTGAGAGA

Relative binding free energy, 0.16 kcal/mol:
ATGTTCACGTGGTTTA
TATCTCACGTGGGGTG
AGTCTCACGTGAGGTA
AGTATCACGTGCGTGC
GAGGTCACGTGTCTGT

Relative binding free energy, -0.13 kcal/mol:
AGTCGCACGTGGGGGC
ATATCCACGTGGTGTG
ATGGCCACGTGGTCTT
AAGTGCACGTGGTCGG
GATGTCACGTGGGCAG
ACGGGCACGTGGTTGA
AGATGCACGTGCAGTG
GCTTGCACGTGGGCTT

Relative binding free energy, 0.22 kcal/mol:
TGAGTCACGTGACGAG
TTATTCACGTGTCGCG
GTTCGCACGTGGAAGA
TATTTCACGTGCAGAG

Relative binding free energy, 0.03 kcal/mol:
TGAAGCACGTGATGGC
TATCGCACGTGATTTA
AAAGACACGTGGTTGT
GGAGTCACGTGGCGCT
AGCGTCACGTGTCTGG

Relative binding free energy, -0.03 kcal/mol:
CGGTGCACGTGGTTGT
AGGGACACGTGGGGAC
CAGTCCACGTGTGGGT
TATGTCACGTGTTCAG
ATGTCCACGTGTGCGG
GTTAACACGTGGCGTG
ATGAACACGTGGGGGG
GGGTGCACGTGTCTAT

Relative binding free energy, -0.22 kcal/mol:
GGGGGCACGTGCCTGG
TAGCGCACGTGCGTGT

Relative binding free energy, 0.42 kcal/mol:
CTTCTCACGTGAGTTT
GAGTCCACGTGAGAGG
GGGATCACGTGATTCG

Relative binding free energy, 0.3 kcal/mol:
TTTTTCACGTGTCAAA

Relative binding free energy, 0.05 kcal/mol:
GGATGCACGTGTGTGG
GTAGGCACGTGGAAGG
TTGAGCACGTGGAGCT
GGGGCCACGTGTATTT
CGAGACACGTGTGTTG
TGGGGCACGTGATGTA

Relative binding free energy, -0.16 kcal/mol:
CTGGGCACGTGGACTG
GAGTGCACGTGGCGGG

Relative binding free energy, -0.04 kcal/mol:
GGTGGCACGTGCGAGT
AGTGACACGTGTATTT
TATTGCACGTGGTGTT
TATTACACGTGTACGT
TTAGGCACGTGATATG

Relative binding free energy, 0.15 kcal/mol:
TGCCTCACGTGTTGTT
GAGCTCACGTGGGGGG
TAAGGCACGTGAGGGC

Relative binding free energy, 0.19 kcal/mol:
CTAGTCACGTGTGAGT
GGATGCACGTGAGTGA
GCATCCACGTGTGGGG
TTGTACACGTGATGTT
CATGTCACGTGATCGG
AGGTTCACGTGGTCGG
GGGGTCACGTGTCGGC
AATATCACGTGAGTAT

Relative binding free energy, -0.17 kcal/mol:
TAGGGCACGTGGGTCG
TATGCCACGTGGCTGG

Relative binding free energy, 0.23 kcal/mol:
GAGGTCACGTGTGTAT

Relative binding free energy, 0.31 kcal/mol:
GACGGCACGTGAGTGT
CGGTACACGTGAATTG
GGGCTCACGTGCTTTG
GCATGCACGTGAGGTA

Relative binding free energy, -0.08 kcal/mol:
TGTGCCACGTGGTCAG
CTTGCCACGTGGAGTG
TCTCGCACGTGGAGTG
TGTTGCACGTGGTATT
ATGGGCACGTGGAGAT
TAGCACACGTGGGGCG

Relative binding free energy, -0.21 kcal/mol:
TGGTCCACGTGGTGGC

Relative binding free energy, -0.02 kcal/mol:
GTCGGCACGTGTTATG
AGCATCACGTGTGGGG
TCCATCACGTGGGGTG
ACGGGCACGTGTGTCG
TGGGTCACGTGGCCGT
GATTGCACGTGCCGGG
ATTGGCACGTGGTGAA

Relative binding free energy, -0.19 kcal/mol:
TGTCGCACGTGCGTTA
TTGCGCACGTGTTGTC
ATTGGCACGTGGAGCT
AGCGGCACGTGGCTGG

Relative binding free energy, 0.32 kcal/mol:
TGTTTCACGTGTTTCT
CGGTTCACGTGTAATA
GTTTTCACGTGTGCAT

Relative binding free energy, 0.18 kcal/mol:
TGTACCACGTGATATG
TATTGCACGTGAACTG

Relative binding free energy, 0.24 kcal/mol:
GAGGTCACGTGAACGT
GAATGCACGTGAGGAT
GTATTCACGTGAGGCT
TGAATCACGTGAGAGT
GCGATCACGTGTGGTA

Relative binding free energy, 0.11 kcal/mol:
ATTCACACGTGGATGT
GGCTGCACGTGTGGCA
AATTGCACGTGGTAAA
CGTATCACGTGGAATG

Relative binding free energy, 0.08 kcal/mol:
AGTAGCACGTGTATGT
GGTGTCACGTGCTATA
TTAGACACGTGGAAGT
AAAGTCACGTGTTATT
AGTTTCACGTGGGTAT
TTGTACACGTGGATGA

Relative binding free energy, 0.13 kcal/mol:
AGTTGCACGTGAGGAA
GGGTACACGTGTGACG
TCGTACACGTGGTAGA
AATTTCACGTGTTTGC
GTAGGCACGTGTTCAA

Relative binding free energy, 0.41 kcal/mol:
GTTCGCACGTGAAGGC

Relative binding free energy, -0.06 kcal/mol:
TTTTGCACGTGGTTTC
ATAGGCACGTGGATGT
GGTGGCACGTGTTCGT
ATGGGCACGTGTCGCG
GCGGTCACGTGGCTGT

Relative binding free energy, 0.33 kcal/mol:
CGGTTCACGTGATGGC
TATGTCACGTGAGGTT

Relative binding free energy, 0.29 kcal/mol:
GAAGACACGTGATAGT
TTATTCACGTGTAAGA

Relative binding free energy, 0.27 kcal/mol:
AGTTTCACGTGTGAGC
ACGTTCACGTGTTGGC

Relative binding free energy, 0.07 kcal/mol:
AATATCACGTGTAGTA
GCGATCACGTGGGGTA
TAAAGCACGTGAGTGG

Relative binding free energy, -0.15 kcal/mol:
TGAAGCACGTGGGGAT
TCGGGCACGTGTTAAT
CTACGCACGTGGAGGG
GTTGACACGTGGCGTA

Relative binding free energy, 0.1 kcal/mol:
TTTCGCACGTGTCGTA
AGTGTCACGTGTCTTA
TTAATCACGTGTATCT
GTGATCACGTGCTGTA

Relative binding free energy, -0.07 kcal/mol:
GTTAGCACGTGGGAGG
TATAACACGTGTTTAG

Relative binding free energy, 0.14 kcal/mol:
AGGGTCACGTGACGGA
ATTTGCACGTGTTGAG
TCGTTCACGTGGTGTG
CAGTACACGTGTGGGA

Relative binding free energy, -0.09 kcal/mol:
TGGGCCACGTGTTGTG
GAAGGCACGTGTTGGC
TTGTGCACGTGGTGGA
TGTAGCACGTGGACGT

Relative binding free energy, 0.34 kcal/mol:
GATGTCACGTGAGTGT

Relative binding free energy, 0.02 kcal/mol:
GGTAACACGTGTGTGG
GTTTGCACGTGTGCGG
TGGACCACGTGTGGGC
GGCGGCACGTGTTAAG
GGGTACACGTGGGGAT
GTGTACACGTGGTATC

Relative binding free energy, -0.18 kcal/mol:
TAGCACACGTGGGGTG
TTTAGCACGTGCCGGG

Relative binding free energy, -0.27 kcal/mol:
TGGGGCACGTGCTATA
ATAAGCACGTGGGTTT

Relative binding free energy, 0.26 kcal/mol:
GATATCACGTGGTTAG

Relative binding free energy, 0.28 kcal/mol:
GGGTTCACGTGCGGGT
CTGTTCACGTGTGGTT
GTATTCACGTGAGGCG
AGTTTCACGTGCTGTG

Relative binding free energy, -0.1 kcal/mol:
ATGGGCACGTGTTTGA
TAAGGCACGTGCGGTG
ACGGGCACGTGTTAGA

Relative binding free energy, 0.12 kcal/mol:
CAATGCACGTGTGTTT

Relative binding free energy, -0.05 kcal/mol:
TAGAACACGTGGTGTT
GTGGGCACGTGTGGCG
GAATACACGTGGTGTG
CGTGGCACGTGTGAGG
TTTGACACGTGTTGTA
